4 molecules from PubChem BioAssay AID296 (DTP/NCI, 2004) can be followed below.

The assay relates to MX-1 breast xenograft, nude mice, tumor weight T/C. Nature of the assay: NCI In Vivo Anticancer Drug Screen. Data for tumor model Human Mammary Carcinoma MX-1 Xenograft (intrarenal inoculation) in NU/NU Swiss (nude) mice. The settings on record: endpoint: mean tumor weight change, schedule: Q04DX003 (sc), higher = larger tumour. As for the experimental part: The antitumor activity of compounds was measured in mice bearing transplantable tumors. Survival or tumor size were measured and the results are expressed as the measurement made in the treated group (T) divided by the measurement made in the vehicle treated control group (C). The tumor model used in this assay is Human Mammary Carcinoma MX-1 Xenograft (intrarenal inoculation) in NU/NU Swiss (nude) mice

SMILES strings stand for the structures. Records with an inconclusive call do not appear. A number of entries come with more than one value. This is not the full list of results. An entry can have further records. Results that share an entry differ, and nothing given here explains why; some may be repeats, others may stem from another dose, organism or construct than stated.

For the molecule `CCCCCCCCCCCCCCCCCC(=O)Nc1ccn(C2OC(CO)C(O)C2O)c(=O)n1` (stereo not drawn), the T/C is listed as 29 % of control, 42 % of control, 83 % of control (dose: 150.0 mg/kg/injection, vehicle: saline with Tween-80) and 17 % of control, 33 % of control, 47 % of control (dose: 300.0 mg/kg/injection, vehicle: saline with Tween-80).

Turning to `CC(C)(C)N1CC1CNC(=O)C(=O)NCC1CN1C(C)(C)C` (stereo not drawn), the T/C is given as 12 % of control, 38 % of control, 48 % of control (dose: 6.25 mg/kg/injection, vehicle: saline with Tween-80); 4 % of control, 13 % of control, 42 % of control (dose: 12.5 mg/kg/injection, vehicle: saline with Tween-80); -92 % of control, -63 % of control, -15 % of control (dose: 25.0 mg/kg/injection, vehicle: saline with Tween-80).

Turning to `NC(=O)c1[nH]nc(C2OC(CO)C(O)C2O)c1O` (stereo not drawn), the T/C runs as follows: (dose: 5.0 mg/kg/injection, vehicle: saline) 18 % of control and 99 % of control; (dose: 10.0 mg/kg/injection, vehicle: saline) 30 % of control and 66 % of control.

Take `CCC1CC2CN(CCc3c([nH]c4ccccc34)C(C(=O)OC)(c3cc4c(cc3OC)N(C)C3C(O)(C(=O)OC)C(OC(C)=O)C5(CC)C=CCN6CCC43C65)C2)C1` (stereo not drawn): the T/C (dose: 4.0 mg/kg/injection, vehicle: water) is 3 % of control and 29 % of control.
